Experimental data from PubChem BioAssay AID1745845 (National Center for Advancing Translational Sciences (NCATS), 2022).
The campaign covered roughly 360,000 compounds. About 2,600 (0.72%) were called active. The shares of active, inactive and inconclusive entries below differ from those in the screen. Calls come from the whole dose curve; as a rule, active = well fitted inhibition curve with a large enough effect; inconclusive = small, poorly fitted or top-dose-only effect; inactive = no such curve, though single readings can be large or run the other way. Potencies beside an inconclusive call are fits to weak or partial responses and may not hold up.

experiment: Primary qHTS for Inhibitors of ATXN expression; conditions: HEK-293 ATXN2-luciferase reporter, luminescence, 24 h; activity change, negative = inhibition: at 57 µM (top of the series); note: nearly all actives have a fitted effect of over 55% in size
Summary of the method: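 qHTS (up to 57 uM final) was run with 24 h compound exposure of reporter cells at 37 °C. Each well was multiplexed: SteadyGlo luminescence measured ATXN2-luciferase expression after a fluorogenic Gly-Phe-AFC viability readout (25 uM final).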
% is set by controls: 0 for no effect and ±100 for the full control effect; potency is the fitted concentration of half-maximal effect; tags give direction and shape of the fitted curve.

Potency, inconclusive:
Cc1cccc(-c2nnc(NC(=O)c3ccc(Cl)cc3)o2)c1 28.2 µM [inhibitor, single point]
CN1CCc2nc(SCc3ccc(Cl)cc3)c(C#N)c(-c3cccs3)c2C1 39.8 µM [inhibitor, single point]
O=C1C=C(N2CCOCC2)c2ccccc2C1=O 20 µM [inhibitor, partial curve, poor fit]
CC(C)C[C@@H](COCc1ccc(Cl)cc1)N1CCN(C(=O)c2ccc(Cl)cc2Cl)CCC1=O 39.8 µM [inhibitor, single point]
CCC1=NN(C(=O)c2cccc(Br)c2)C(O)(c2ccc(Br)cc2)C1 (centres undefined) 12.6 µM [inhibitor, partial curve, poor fit]
CN(Cc1ccccc1)C(=O)c1ccc(Nc2nc(C(N)COCc3ccccc3)cs2)nc1 (centres undefined) 28.2 µM [inhibitor, single point]
Cc1nc(NC(=O)/C=C/c2ccccc2)sc1C(=O)Nc1ccc(Cl)cc1 31.6 µM [inhibitor, single point]
CCC(CO)Oc1cc(NCc2ccccc2OC)c2ncn(C(C)C)c2c1 (centres undefined) 22.4 µM [inhibitor, partial curve]
CCOc1ccc(CCN2C(=S)N([C@@H](CC(C)C)CN3CCCC3CN3C(=S)NC[C@@H]3Cc3ccccc3)C[C@@H]2CC(C)C)cc1 (some centres undefined) 17.8 µM [inhibitor, partial curve, poor fit]
Cc1cccc(N2CCN(C(=O)COCc3cc(-c4ccc5c(c4)OCO5)on3)CC2)c1C 35.5 µM [inhibitor, single point]
CC(C)CCNC(=O)c1cnn2c(C(F)(F)F)cc(-c3ccco3)nc12 39.8 µM [inhibitor, single point]
C/C(=N\OCC(=O)N/N=C/c1ccccc1O)c1cccs1 28.2 µM [inhibitor, single point]
S=C1SCN(Cc2cccnc2)CN1Cc1ccccc1 11.9 µM [inhibitor, partial curve, poor fit]
Cc1cccn2c(=O)c3cc(C(N)=S)c(=N)n(CCCN4CCOCC4)c3nc12 42.3 µM [inhibitor, partial curve, poor fit]
Cc1ccc(CN(N=Nc2nonc2N)c2nonc2N)c(C)c1 39.8 µM [inhibitor, partial curve, poor fit]
Oc1cccc(-c2sc3ccccc3c2-c2ccc(OCCN3CCCCC3)cc2)c1 25.1 µM [inhibitor, single point]
Cc1[nH]c2ccccc2c1C(=O)CN1C(=O)NC2(CC(C)CC(C)(C)C2)C1=O (centres undefined) 35.5 µM [inhibitor, partial curve]
CC(=O)Nc1ccc(-c2ccnc3c2CC(C)(C(=O)Nc2cccc(OC(F)(F)F)c2)O3)cc1 (centres undefined) 39.8 µM [inhibitor, single point]
O=C(Nc1cccc(Cl)c1)Nc1cc(S(=O)(=O)N2CCCCC2)ccc1Cl 17.8 µM [inhibitor, partial curve, poor fit]
CCOC(=O)[C@]12CCCC=C1N(Cc1ccc(Cl)cc1Cl)C(=O)[C@H](CC(=O)NCCC(C)C)C2 39.8 µM [inhibitor, single point]
CC(C)Cc1nc(N2CCN(C(=O)c3ccco3)CC2)c(C#N)c2c1CCCC2 31.6 µM [inhibitor, single point]
COc1cccc(-c2csc(N3CCN(C(=S)Nc4cccc(Cl)c4)CC3)n2)c1 39.8 µM [inhibitor, single point]
CC(=O)c1cccc(NC(=O)C2Cc3c(-c4ccco4)ccnc3O2)c1 (centres undefined) 20 µM [inhibitor, partial curve, poor fit]
CC(C)(C)C1CCc2nc(NC(=O)COc3ccccc3[N+](=O)[O-])sc2C1 (centres undefined) 0.708 µM [inhibitor, partial curve, poor fit]
COc1ccc(S(=O)(=O)c2c(SC)nn(CC(=O)Nc3ccc(C)c(Cl)c3)c2N)cc1 31.6 µM [inhibitor, single point]
O=C(NCC(c1cccs1)N1CCOCC1)c1cnc(Cl)c(Cl)c1 (centres undefined) 35.5 µM [inhibitor, single point]
CCc1nc2ccc(C(=O)Nc3ccc(Cl)c(Cl)c3)cn2c1N(C)Cc1ccc(OC)cc1 39.8 µM [inhibitor, single point]
CCOC(=O)[C@]12CCC=C1N(Cc1cccc3ccccc13)C(=O)[C@H](CC(=O)N1CCOCC1)C2 3.55 µM [inhibitor, partial curve, poor fit]
CC(C)CCCCCCNC(=S)Nc1ccc(S(=O)(=O)N2CCOCC2)cc1 25.1 µM [inhibitor, single point]
Cc1ccc(-c2cn3cc(C)ccc3n2)cc1 2.67 µM [inhibitor, full curve, poor fit]
COC(=O)C1=C(CN2CCCc3ccccc32)NC(=O)NC1c1ccc(F)cc1 (centres undefined) 0.355 µM [inhibitor, full curve, poor fit]
Cc1ccc(Cc2cnc(N3C(=N)SC(C)C3=O)s2)cc1 (centres undefined) 37.7 µM [inhibitor, partial curve, poor fit]
COCCOc1ccc2c(c1)ncn2-c1ccc2cccc(N3CCC(N)CC3)c2n1 34.3 µM [inhibitor, single point]
COc1ccc(CC(=O)Nc2ccc(-c3noc(-c4ccc(Cl)cc4)n3)cc2)cc1 12.6 µM [inhibitor, partial curve]
O=C(NC(Nc1nc2ccc([N+](=O)[O-])cc2s1)(C(F)(F)F)C(F)(F)F)c1ccccc1Cl 0.562 µM [inhibitor, full curve]
COc1ccc2c(c1)C(=NN)c1cc(OC)ccc1-2 25.1 µM [inhibitor, single point]
COc1cccc(CNc2nc3cc(-c4ccccc4C)sc3c(=O)n2C)c1OC 39.8 µM [inhibitor, single point]
O=C(CCl)N(c1ccccc1)c1ccccc1 7.52 µM [inhibitor, full curve, poor fit]
Cc1[nH]c2ccccc2c1C(=O)COC(=O)c1c(-c2c(F)cccc2Cl)noc1C 39.8 µM [inhibitor, partial curve, poor fit]

Potency, inactive:
COc1cccc(NC(=O)Nc2ccccc2Br)c1
COc1ccccc1OCCCCn1c(C2CC(=O)N(c3ccccc3Cl)C2)nc2ccccc21 (centres undefined)
COc1ccccc1OCC1CNC(=O)O1 (centres undefined)
Cc1ccccc1C1c2[nH]c3ccccc3c2C[C@H]2C(=O)N(C3CC3)CC(=O)N12 (some centres undefined)
CC(Oc1ccc(Cl)cc1Cl)C(=O)NC1=NN(c2ccccc2)C(=O)C1 (centres undefined)
Cc1ccc(C(=O)NNC2=Nc3cccc4cccc2c34)cc1
OC(COC(c1ccc(F)cc1)c1ccc(F)cc1)CN1CCCC(C(F)(F)F)C1 (centres undefined)
CCOc1ccc(S(=O)(=O)N2CCOCC2)cc1NC(=O)CSCC(=O)Nc1cccc(C)c1
CN(C)c1ccc(NC(=O)CSc2nc(-c3ccco3)cc(C(F)(F)F)n2)cc1
C=CCNC(=O)c1onc(CSc2ccc(F)cc2)c1C(=O)NCC=C
CC1=NN(/C(=N\c2nnc(C)s2)Nc2ccc(C)cc2)[C@H](c2ccc(C)cc2)S1
CCN(c1ccccc1)S(=O)(=O)c1cccc(C(=O)N(C)CC(=O)Nc2ccc(F)c(F)c2F)c1
COC(=O)c1c(NC(=O)/C=C/c2ccc3c(c2)OCO3)sc(C)c1C
Cc1cc(C)cc(-c2nnc(SCC(=O)Nc3cc(C)on3)o2)c1
CCN(CC)c1ccc(NC(=O)c2ccccc2F)cc1
O=C(O)C1CCN(c2ccc(S(=O)(=O)N3CCCCC3)cc2[N+](=O)[O-])CC1
CCOC(=O)Nc1cc2c(c(N)n1)N=C(c1ccccc1)CN2
CCOC(=O)/C=C/C(=O)OCC(=O)Nc1ccc(C)cc1
CC(=O)Nc1ccc(SCCN2CC[C@@H](O)CCC2=O)cc1
COc1cccc(/C=C/C(=O)c2ccc3c(c2)OCO3)c1OC
CCOc1cc(C(=S)N2CCCC2)ccc1OCC(=O)Nc1c(C)cc(C)cc1C
CCCCC[C@H]1CN(CCCC)C(=O)[C@@H]1CC(=O)NCc1ccccc1
COc1ccc(Cn2c(-c3ccc(Br)cc3)c[n+]3ccccc23)cc1
CCc1ccc2[nH]c(O)c(N=Nc3nc(-c4ccccc4)cs3)c2c1
CC(=O)Oc1ccc(-c2ccc(C(=O)Nc3cccc(S(=O)(=O)N4CCOCC4)c3)cc2)cc1

Potency, active:
c1cc(-c2cnn3cc(-c4ccc(OCCN5CCCCC5)cc4)cnc23)ccn1 3.85 µM
CC(=NNC(=S)N1CC2CCC(CC2)C1)c1ccncn1 0.316 µM
O=C(Nc1ccc(Cl)c([N+](=O)[O-])c1)c1ccc(NCCCN2CCOCC2)c([N+](=O)[O-])c1 31.6 µM
O=C(Nc1ccc(Cl)cc1)Nc1cccc(C(=O)O)c1 8.91 µM

Activity change, negative = inhibition, inconclusive:
O=C(N/N=C/c1ccc(OC2CSC2)cc1)c1ccc(CN2CCOCC2)cc1 -40.2% [inhibitor]
